Values quoted from earlier work in patent US8889153B2, “Combination of immunomodulator and anti-pathogenic agent” (priority 2008, dated 2014).

System: Punta Toro virus - Adames strain
Conditions: cited from earlier work

NC(=O)c1ncn([C@@H]2O[C@H](CO)[C@@H](O)[C@H]2O)n1 [Ribavirin, 1-(β-D-Ribofuranosyl)-1H-1,2,4-triazol-3-carboxamide]
minimum effective dosage reported in literature, PTV infection (Antimicrob Agents Chemother 32:331-336): 4.7 mg/kg | effect against PTV infection in low dosages (less than […], Sidwell et al. 1988): ineffective
